Data published in the supplement of paper PMC4604168 (melanoma cell lines).
This is one part of the list. Most values come without repeats; read them as rough.

system: A375; test: cell count relative to DMSO control; melanoma cells; higher = more viable cells; conditions: library dose: standard library concentration; 72 h
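Note: cells treated in 1,536-well plates, then fixed and DAPI-stained, with nuclei counted from automated high-throughput microscope images.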

Row | SMILES | cell count
1 | NC(=O)c1ccc(N(C(N)=O)c2c(F)cccc2F)nc1-c1ccc(F)cc1F + O=C(O)c1ccc(-c2c[nH]c3ncc(-c4ccccc4)cc23)cc1C1CCCC1 [GSK650394] (first compound 2 µM, partner dose 0.8 µM) | 106%
2 | CCCCCCCCc1ccc(CCC(N)(CO)CO)cc1 [fingolimod] + COCC[n+]1c2c(n(Cc3cnccn3)c1C)C(=O)c1ccccc1C2=O [YM155] (first compound 10 µM, partner dose 0.002 µM) | 80.4%
3 | NC(=O)c1ccc(N(C(N)=O)c2c(F)cccc2F)nc1-c1ccc(F)cc1F + CC(=O)c1c(C)c2cnc(Nc3ccc(N4CCNCC4)cn3)nc2n(C2CCCC2)c1=O [palbociclib] (first compound 2 µM, partner dose 0.2 µM) | 82%
4 | CCCCCCCCc1ccc(CCC(N)(CO)CO)cc1 [fingolimod] + Nc1nc(F)nc2c1ncn2[C@@H]1O[C@H](CO)[C@@H](O)[C@@H]1O [fludarabine] (first compound 10 µM, partner dose 1 µM) | 9.12%
5 | NC(=O)c1ccc(N(C(N)=O)c2c(F)cccc2F)nc1-c1ccc(F)cc1F + CCCS(=O)(=O)Nc1ccc(F)c(C(=O)c2c[nH]c3ncc(Cl)cc23)c1F [PLX4720] (first compound 2 µM, partner dose 0.4 µM) | 95.5%
